Reference: the supplement of paper PMC3656093
± gives the standard deviation of the averaged measurements. Over roughly 1,900 compounds, “CD40L-induced NF-kB luciferase activity, plate-corrected, relative to DMSO (0) and IKK inhibitor VII (-100) controls” has its median near 0.032; the lowest 2% begin near -26. This is one part of the list.

tested on: BL2-NFkB-Luc; assay: CD40L-induced NF-kB luciferase activity, plate-corrected, relative to DMSO (0) and IKK inhibitor VII (-100) controls (% normalized activity); higher = more NF-kB reporter activity (less inhibition); conditions: 9.4 µM; stimulus: tCD40L 64 ng/ml; 4.5 h
Procedure: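 BL2 B cells with a stable NF-kB response-element luciferase reporter (BL2-NFkB-Luc), 384-well. Cells were pre-incubated with compound at 9.4 uM for 1 h at 37 C, then stimulated with 64 ng/ml trimerized CD40L for 4.5 h; luciferase was read with Steady-Glo. Signal was normalised per plate in Genedata (median DMSO neutral control = 0, median IKK inhibitor VII at 50 uM = -100) with Assay Median plate-pattern correction; duplicate plates.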

Row | SMILES | CD40L-induced NF-kB luciferase activity
1 | NCC(O)c1ccc(O)cc1 (stereo unspecified) | 1.15 ± 1.4
2 | S=C1NCCN1 | 3.68 ± 0.28
3 | CC(Cc1ccccc1)NCC(=O)Nc1cc(N(C)C)nc2ccccc12 (stereo unspecified) | 2.09 ± 1.1
4 | Cc1ccsc1C(=O)C1CCCN(Cc2cc3ccccc3o2)C1 (stereo unspecified) | 2.94 ± 3.7
5 | Cc1ccc(-n2c(C)cc(/C=C3/C(=O)NC(=O)N(C)C3=O)c2C)cc1 | -5.17 ± 2.5
6 | C[C@]12CC[C@@H](O)C[C@@H]1CC[C@@H]1[C@@H]2CC[C@]2(C)[C@@H](O)CC[C@@H]12 | -7.7 ± 8.6
7 | OC1CCCCC1N1CCC(c2ccccc2)CC1 (stereo unspecified) | -5.95 ± 3.6
8 | COc1ccc2c(c1)CC1(CN2C)C(=O)NC(=O)N(CCc2ccccc2)C1=O (stereo unspecified) | -0.818 ± 1.4
9 | CC(=O)OC1C2CCC1C(N1CCCC1)CC2 (stereo unspecified) | -2.77 ± 0.79
10 | CC12CCC3C(CC=C4CC(O)CCC43C)C1C/C(=C\c1cccc(F)c1)C2=O (stereo unspecified) | -5.06 ± 1.9
11 | CC12CC[C@H]3[C@@H](CCC4(O)C[C@H](O)CCC34C=NNC(=O)Cc3ccccc3)C1(O)CCC2C1=CC(=O)OC1 (stereo partly specified) | -1.26 ± 0.48
12 | CC12CN3CC(C)(CN(C1)C31CCOCC1)C2=O | -5.49 ± 5.5
13 | C[C@]12CC[C@@H](O)C[C@@H]1CC[C@@H]1[C@@H]2CC[C@]2(C)C(=O)CC[C@@H]12 | 1.29 ± 3.4
14 | CC[C@]12C=CCN3CCC4(c5cc(Br)c(OC)cc5N(C)C4[C@@](O)(C(=O)OC)[C@@H]1OC(C)=O)C32 (stereo partly specified) | 0.234 ± 7.5
15 | CC(C)[N+](C)(CCC(C(N)=O)(c1ccccc1)c1ccccc1)C(C)C | 3.26 ± 2.9
16 | C#C[C@]1(O)CC[C@H]2[C@@H]3CCC4=CC(=O)CC[C@]4(C)[C@H]3CC[C@@]21C | -8.34 ± 4.1
17 | O=c1[nH]c2ccccc2n1CCCN1CCC(n2c(=O)[nH]c3cc(Cl)ccc32)CC1 | -5.01 ± 5.7
18 | C[C@@H]1O[C@@H](O[C@H]2C[C@@H](O)[C@]3(CO)[C@H]4[C@H](O)C[C@]5(C)[C@@H](C6COC(=O)C6)CC[C@]5(O)[C@@H]4CC[C@]3(O)C2)[C@H](O)[C@H](O)[C@H]1O (stereo partly specified) | 2.54 ± 3.8
19 | O=C1CCCC2=C1C(c1cccnc1)Nc1ccccc1N2 (stereo unspecified) | -1.61 ± 2.8
20 | C#CCN(C)C(C)Cc1ccccc1 (stereo unspecified) | 0.792 ± 0.45
21 | C[N+]1(C)CCOC(O)(c2ccc(-c3ccc(C4(O)C[N+](C)(C)CCO4)cc3)cc2)C1 (stereo unspecified) | -3.22 ± 3.6
22 | Nc1ccncc1 | 2.39 ± 3.6

Row | SMILES | CD40L-induced NF-kB luciferase activity
23 | C[C@]12CCC(=O)C=C1CC[C@@H]1[C@@H]2C(=O)C[C@]2(C)C(=O)CC[C@@H]12 | -0.221 ± 7.7
24 | COc1ccc(C(=O)N2CCCC2=O)cc1 | -3.54 ± 2.8
25 | O=C(O)CCCc1ccc(N(CCCl)CCCl)cc1 | 0.841 ± 1.6
26 | CC(C)[C@@]1(NC(=O)[C@@H]2C[C@@H]3c4cccc5[nH]cc(c45)C[C@H]3N(C)C2)O[C@@]2(O)[C@@H]3CCCN3C(=O)[C@H](Cc3ccccc3)N2C1=O | 0.32 ± 1.1
27 | COc1ccc(OCC(=O)N2c3ccc(C)cc3C3CN(C)CCC32)cc1 (stereo unspecified) | 0.261 ± 0.6
28 | CCOc1ccc(C2C(C#N)=C(N)Oc3c2c(=O)oc2ccccc32)cc1 (stereo unspecified) | 0.103 ± 1.5
29 | CC(C)CC12CN3CCN(CC(C3)C1O)C2 (stereo unspecified) | 0.868 ± 7.8
30 | CC12CCC3C(CC=C4CC5(CCC43C)OCCO5)C1CCC2=O (stereo unspecified) | 4.19 ± 4.8
31 | CCCC[N+]1(C)[C@@H]2CC(OC(=O)[C@H](CO)c3ccccc3)C[C@H]1[C@@H]1O[C@@H]12 (stereo partly specified) | -0.479 ± 2.2
32 | CC(CCc1ccccc1)NC(C)C(O)c1ccc(O)cc1 (stereo unspecified) | 2.16 ± 8.5
33 | CC(C)C[C@H](NC(=O)[C@@H]1CCCN1C(=O)[C@@H](N)Cc1ccc(O)cc1)C(=O)NCC(N)=O | -28.7 ± 4.1
34 | C[C@H](O)[C@H]1CC[C@H]2[C@@H]3CCC4=CC(=O)CC[C@]4(C)[C@H]3CC[C@]12C | 5.24 ± 2.7
35 | O=C1CN=C(c2ccccc2F)c2cc(Cl)ccc2N1 | -0.0643 ± 0.96
36 | C[N+](C)(C)CCCCCCCCCC[N+](C)(C)C | -4.54 ± 9.3
37 | Cc1cc(Cl)ccc1OCC(=O)O | -0.759 ± 6.9
38 | CCCN1C[C@H](CSC)C[C@@H]2c3cccc4[nH]cc(c34)C[C@H]21 | -2.59 ± 7.8
39 | CN1C(=O)N(C)C(=O)C2(Cc3ccccc3N3CCOCC32)C1=O (stereo unspecified) | 4.38 ± 0.45
40 | NNC(=O)c1ccc(Cl)cc1 | 7.99 ± 1.9
41 | COc1cc2c3cc1Oc1cc(ccc1O)C[C@@H]1c4c(cc(OC)c(O)c4Oc4ccc(cc4)C[C@H]3N(C)CC2)CCN1C | 0.462 ± 2.1
42 | CCNC(=S)N(C)CCc1cc2c(c(OC)c1C=C1C(=O)N(C)C(=O)N(C)C1=O)OCO2 | 6.09 ± 0.4
43 | COP(=S)(OC)SCN1C(=O)c2ccccc2C1=O | -0.0255 ± 0.76
44 | COc1ccc(CCN2CCC(Nc3nc4ccccc4n3Cc3ccc(F)cc3)CC2)cc1 | -4.18 ± 3.9

Row | SMILES | CD40L-induced NF-kB luciferase activity
45 | C[C@H]1CCC[C@H](O)CCCCCc2cc(O)cc(O)c2C(=O)O1 | -16.2 ± 1.5
46 | COC1=CC(=O)OC(/C=C/c2ccccc2)C1 (stereo unspecified) | 1.92 ± 3.3
47 | Clc1ccc(C2NCCc3[nH]cnc32)cc1 (stereo unspecified) | 2.35 ± 1.1
48 | CC12CN3CC(C)(CN(C1)C3c1cccs1)C2O (stereo unspecified) | -2.02 ± 2.9
49 | COc1ccc(Cc2nccc3cc(OC)c(OC)cc23)cc1OC | -24.6 ± 1.4
50 | CC1CCC[C@H](O)CCCCCc2cc(O)cc(O)c2C(=O)O1 (stereo partly specified) | -5.81 ± 1.4
51 | CN1C2CCC1CC(OC(=O)c1ccc(Cl)cc1)C2 (stereo unspecified) | -2.24 ± 2.5
52 | CC(C)(C)NCC(O)c1cc(Cl)c(N)c(Cl)c1 (stereo unspecified) | -3.51 ± 17
53 | CCOC(=O)c1cc2c(cn1)[nH]c1ccccc12 | 38.8 ± 20
54 | NCCc1ccc(O)cc1 | 6.48 ± 5.3
55 | CN1[C@@H]2CC[C@H]1CC(OC(=O)C(CO)c1ccccc1)C2 (stereo partly specified) | -0.533 ± 0.51
56 | C[N+]1(C)CCN(c2ccccc2)CC1 | -7.2 ± 2.2
57 | COc1ccc2c3c([nH]c2c1)C(C)=NCC3 | -0.0193 ± 0.26
58 | C[C@@H]1O[C@@H](O[C@H]2C[C@@H](O)[C@]3(CO)[C@H]4[C@H](O)C[C@]5(C)[C@@H](C6=CC(=O)OC6)CC[C@]5(O)[C@@H]4CC[C@]3(O)C2)[C@H](O)[C@H](O)[C@H]1O | -78.94 ± 0.33
59 | O=S(=O)(c1ccc(F)cc1)N1CCCCC1c1cccnc1 (stereo unspecified) | -2.98 ± 5.6
60 | CC(=O)C1=C(C)OC(N)=C(C(=O)OC(C)C)C12C(=O)Nc1ccccc12 (stereo unspecified) | -8.11 ± 3.9
61 | Fc1ccc(C(OCCN2CCCC2)c2ccc(Br)cc2)cc1 (stereo unspecified) | 3.13 ± 0.33
62 | CC(C)NC(C)C(=O)c1ccc2ccccc2c1 (stereo unspecified) | 6.46 ± 0.37
63 | CCN1CC2(COC(=O)c3ccccc3N)CCC(OC)C34C5CC6C(OC)CC(O)(C5C6OC)C(O)(C(OC)C23)C14 (stereo unspecified) | -1.04 ± 0.25
64 | COc1ccc(OC)c([C@@H](O)[C@H](C)NC(C)(C)C)c1 | -6.62 ± 15
65 | NC(=O)CN1CCCC1=O | -2.55 ± 1.3
66 | Cc1cc(OCc2cc(C(=O)O)oc2C)c2c3c(c(=O)oc2c1)CCCC3 | 2.41 ± 3.2
